{
  "source": "PubChem BioAssay AID463173",
  "about": "(ICCB-Longwood Screening Facility, Harvard Medical School, 2010)",
  "note": "In all, about 52,000 compounds went through this assay and about 1,700 (3.3%) were called active. No stated cut-off is given here; in the data, active means survival mostly below about 52% (no sharp cut-off); inactive means mostly above about 56%. The list shows a part of the results.",
  "data": [
    {"system": "Wild type", "test": "S. aureus survival, RN4220 and DeltatarO strains – OD600, teichoic acid synthesis inhibitors, primary screen (AID 463173)", "settings": "S. aureus RN4220 wild type/DeltatarO growth, OD600, 18 h, stronger effect = lower value, screened at 18.75 µg/mL (by protocol)", "values": [
      {"smiles": "O=C(NC1CCCCC1)c1cccnc1Nc1ccccc1F", "survival": "inactive: 113%"},
      {"smiles": "Cn1c(=O)c(=O)n(C)c2cc(NC(=O)c3ccccc3Br)ccc21", "survival": "inactive: 93%"},
      {"smiles": "CC(=O)N1CCc2c(sc3c2c(=O)n(Cc2ccccc2)c(=O)n3CC(=O)Nc2ccc(C)c(F)c2)C1", "survival": "inactive: 87%"},
      {"smiles": "CCOc1ccc(CNC(=O)CCCn2c(=O)c3cccn3c3ccc(F)cc32)cc1", "survival": "inactive: 65%"},
      {"smiles": "CCc1ccc(NC(=O)CCn2cnc3ccccc3c2=O)cc1", "survival": "inactive: 72%"},
      {"smiles": "Cc1cc(C)n(CCOc2nonc2N)n1", "survival": "inactive: 113%"},
      {"smiles": "CCc1ccc(S(=O)(=O)c2nnn(-c3cccc(C)c3)c2N)cc1", "survival": "inactive: 69%"},
      {"smiles": "COc1ccc(CN2C(=O)C(NC(=O)c3ccccc3OC)(C(F)(F)F)N=C2c2ccccc2)cc1", "note": "(centres undefined)", "survival": "inactive: 83%"},
      {"smiles": "O=C(/C=C\\Nc1ccccn1)c1ccc2c(c1)OCO2", "survival": "inactive: 109%"},
      {"smiles": "CC(C)c1ccc(OCc2cc(=O)n3c(-c4ccccc4)csc3n2)cc1", "survival": "inactive: 127%"},
      {"smiles": "Cc1ccc(S(=O)(=O)c2nnn3c2nc(NCc2ccccc2Cl)c2sccc23)cc1", "survival": "inactive: 92%"},
      {"smiles": "CCOC(=O)c1ccc(NC(=O)c2nn(C)c3c2COc2ccccc2-3)cc1", "survival": "inactive: 113%"},
      {"smiles": "COc1cc(-c2cc(OC)c3c(C)oc(C)c3c(=O)c2)ccc1OC(=O)c1cccc(Cl)c1", "survival": "inactive: 118%"},
      {"smiles": "COc1ccc(NC(=O)CCCN2C(=O)COc3ccc(C)cc32)cc1OC", "survival": "inactive: 114%"},
      {"smiles": "c1ccc(N2CCN(N=C3c4ccccc4-c4ccccc43)CC2)nc1", "survival": "inactive: 37%"},
      {"smiles": "CC(C)(C)OC(=O)N1CCC(c2c(C(=O)N3CCN(C(=O)c4ccco4)CC3)cnn2-c2ccccc2Cl)CC1", "survival": "inactive: 93%"},
      {"smiles": "COCCCNC(=O)c1ccc2c(c1)NC(=O)C(C(C)C)N2", "note": "(centres undefined)", "survival": "inactive: 73%"},
      {"smiles": "O=C(Cn1c(=O)n(-c2ccc(Cl)cc2)c(=O)c2c3c(sc21)CCC3)c1ccccc1", "survival": "inactive: 72%"},
      {"smiles": "CCOC(=O)c1c(NC(=O)CSc2cn(CCNC(=O)c3ccccc3F)c3ccccc23)sc2c1CCCC2", "survival": "inactive: 95%"},
      {"smiles": "Cc1ccc(NC(=O)C(C#N)Cc2ccncc2)cc1C", "note": "(centres undefined)", "survival": "inactive: 104%"},
      {"smiles": "CC(C)(C)NC(=O)c1oc2ccccc2c1NC(=O)c1ccc(F)cc1", "survival": "inactive: 73%"},
      {"smiles": "CCc1ccc(S(=O)(=O)c2nnn3c2nc(NCCNC(C)=O)c2cc(Cl)ccc23)cc1", "survival": "inactive: 88%"},
      {"smiles": "COC(=O)CSc1n[nH]c(CNc2cccc(C)c2)n1", "survival": "inactive: 108%"},
      {"smiles": "Cc1ccccc1C(=O)c1cccn1CC(=O)NCc1cccc(Cl)c1", "survival": "inactive: 102%"},
      {"smiles": "CCC(=O)Nc1ccc(C(=O)Nc2c[nH]c(=O)[nH]c2=O)cc1", "survival": "inactive: 107%"},
      {"smiles": "COCCN(CCOC)c1ncnc2c1c(-c1ccccc1)cn2-c1ccc(C)c(Cl)c1", "survival": "inactive: 73%"},
      {"smiles": "Cc1ccc(Cn2cc(CCC(=O)NCc3ccc(OC(C)C)cc3)c3ccccc32)cc1", "survival": "inactive: 83%"},
      {"smiles": "CCCCNC(=O)C(CC)Sc1nc2ccccc2c(=O)n1CCc1ccc(OC)c(OC)c1", "note": "(centres undefined)", "survival": "inactive: 127%"},
      {"smiles": "CCc1nn(CCCC(=O)NC(C)c2ccccc2)c(=O)c2cc3occc3n12", "note": "(centres undefined)", "survival": "inactive: 81%"},
      {"smiles": "Cn1c(SCc2ccccc2F)nc2c([nH]c3ccccc32)c1=O", "survival": "inactive: 99%"},
      {"smiles": "Cc1cc2ccccc2n2c(SCC(=O)O)nnc12", "survival": "inactive: 106%"},
      {"smiles": "CCc1ccc(NC(=O)Cn2c(-c3cncs3)nc3ccccc32)cc1", "survival": "inactive: 70%"},
      {"smiles": "CC(C)C(Nc1n[nH]c(=O)[nH]c1=O)C(=O)O", "note": "(centres undefined)", "survival": "inactive: 110%"},
      {"smiles": "Cc1ccc(NC(=O)Cn2c(=O)n(Cc3ccc4c(c3)OCO4)c(=O)c3ccc(C(=O)NC4CCCCC4)cc32)c(C)c1", "survival": "inactive: 82%"},
      {"smiles": "CCOc1ccc2nc(NCCNC(=O)COc3ccccc3)c(C#N)cc2c1", "survival": "inactive: 116%"},
      {"smiles": "COc1ccccc1C(=O)Nc1ccc(OCc2cc(=O)n3cc(C)sc3n2)cc1", "survival": "inactive: 120%"},
      {"smiles": "COc1ccc(C)cc1NC(=O)c1ccc2c(c1)nnn2C1CCCC1", "survival": "inactive: 76%"},
      {"smiles": "CCn1c2ccccc2c2cc(CN3CCN(Cc4ccccc4C)CC3)ccc21", "survival": "active: -1%"},
      {"smiles": "O=C(c1ccc2c(c1)N(Cc1cccc(Cl)c1)C(=O)c1ccccc1S2)N1CCOCC1", "survival": "inactive: 99%"},
      {"smiles": "Cc1ccc2[nH]c(=O)c3cc(C(=O)NCCc4ccc(Cl)cc4)sc3c2c1", "survival": "inactive: 86%"},
      {"smiles": "O=C1c2oc3ccccc3c(=O)c2C(c2cccc(Cl)c2)N1c1ccccn1", "note": "(centres undefined)", "survival": "inactive: 70%"},
      {"smiles": "c1ccc(OCCn2c(COc3ccccc3)nc3ccccc32)cc1", "survival": "active: -15%"},
      {"smiles": "O=S(=O)(Nc1ccc(-c2ccc(N3CCCC3)nn2)cc1)c1cc(F)ccc1F", "survival": "inactive: 80%"},
      {"smiles": "CC1=C(C(=O)Nc2ccc(C)cc2C)C(c2ccccc2F)n2nc(SCC(=O)c3ccc(C)cc3)nc2N1", "note": "(centres undefined)", "survival": "inactive: 152%"},
      {"smiles": "CCOC(=O)/C(C#N)=C1\\CC2CCC1(C)C2(C)C", "note": "(centres undefined)", "survival": "inactive: 117%"},
      {"smiles": "O=C(Cn1c(=O)c2cccn2c2cccnc21)NCc1ccccc1F", "survival": "inactive: 81%"},
      {"smiles": "CN1CCN(C(CNC(=O)C(=O)Nc2cccc(Cl)c2)c2ccc3c(c2)OCO3)CC1", "note": "(centres undefined)", "survival": "inactive: 75%"},
      {"smiles": "CCc1ccc(NC(=O)c2cnc3sc(N4CCCC4)nn3c2=O)cc1", "survival": "inactive: 85%"},
      {"smiles": "Cc1cc2nc(-c3ccc(OCc4ccccc4)cc3)cc(C(F)(F)F)n2n1", "survival": "inactive: 68%"},
      {"smiles": "COc1ccccc1NC(=O)C1CCC(CNS(=O)(=O)c2ccc3c(c2)CC(C)N3C(C)=O)CC1", "note": "(centres undefined)", "survival": "inactive: 85%"},
      {"smiles": "Cc1cc(-n2c(C)nc3ccccc3c2=O)ccc1NC(=O)c1ccc([N+](=O)[O-])cc1", "survival": "inactive: 82%"},
      {"smiles": "O=C(Nc1ccc(S(=O)(=O)N2CCCCCC2)cc1)c1cc(=O)c2ccccc2o1", "survival": "inactive: 81%"},
      {"smiles": "CCOc1ccc(NS(=O)(=O)c2ccc3[nH]cc(C(=O)NCC4CCCO4)c(=O)c3c2)cc1", "note": "(centres undefined)", "survival": "inactive: 88%"},
      {"smiles": "COC(=O)CN1C(=O)CSc2ccc(S(=O)(=O)Nc3cccc(Cl)c3C)cc21", "survival": "inactive: 90%"},
      {"smiles": "Nc1c(-c2nc(-c3ccc(F)cc3)cs2)c2ccccn2c1C(=O)c1ccc2c(c1)OCO2", "survival": "inactive: 105%"},
      {"smiles": "CCOc1ccc(N2CC(C(=O)NCc3nnnn3-c3ccc(C)c(C)c3)CC2=O)cc1", "note": "(centres undefined)", "survival": "inactive: 65%"},
      {"smiles": "CC(=O)c1ccc(N2CCN(C(=O)CCS(=O)(=O)c3ccc4c(c3)oc(=O)n4C)CC2)cc1", "survival": "inactive: 89%"},
      {"smiles": "COc1ccc(NCc2cc3ccc(OC)cc3n(CC(=O)Nc3cc(Cl)ccc3C)c2=O)cc1", "survival": "inactive: 77%"},
      {"smiles": "CC(=O)Nc1cccc(-c2nc3ccccc3o2)c1", "survival": "inactive: 112%"},
      {"smiles": "Cc1cc(=O)n(CC(=O)N2CCN(c3ccc(F)cc3)CC2)c2c1c(C)nn2C", "survival": "inactive: 95%"},
      {"smiles": "CC(Oc1ccccc1F)C(=O)Nc1ccc(-c2nc3ccccc3s2)cc1", "note": "(centres undefined)", "survival": "inactive: 115%"},
      {"smiles": "CCSc1ncc(Cl)c(C(=O)Nc2sc3c(c2C(=O)NC)CCCC3)n1", "survival": "inactive: 90%"},
      {"smiles": "CC1CCc2c(sc(NC(=O)c3cc4nc(-c5ccc(Cl)cc5)cc(C(F)(F)F)n4n3)c2C#N)C1", "note": "(centres undefined)", "survival": "inactive: 69%"},
      {"smiles": "CCc1cccc(NC(=O)CN(C)S(=O)(=O)c2cccc3cccnc23)c1", "survival": "inactive: 70%"},
      {"smiles": "CCC1CCCCN1C(=O)c1sc(-n2nc(C)c(Cc3ccccc3)c2C)nc1C", "note": "(centres undefined)", "survival": "inactive: 72%"},
      {"smiles": "COc1ccc(S(=O)(=O)c2cnc(SCC(=O)Nc3cc(F)ccc3C)[nH]c2=O)cc1Cl", "survival": "inactive: 91%"},
      {"smiles": "CCCCCC1CC(CC(=O)Nc2nncs2)C(=O)O1", "note": "(centres undefined)", "survival": "inactive: 116%"},
      {"smiles": "Cc1ccc(Cl)cc1NC(=O)CN1C(=O)C(C)(C)c2cc(S(=O)(=O)N3CCCCC3)ccc21", "survival": "active: 1%"},
      {"smiles": "CC(=O)c1cccc(NC(=O)c2cc3c(s2)-c2c(C)cccc2OC3)c1", "survival": "inactive: 130%"},
      {"smiles": "CCOC(=O)c1c(S(=O)(=O)NCC(=O)NCc2ccccc2)c(C)n(C)c1C", "survival": "inactive: 87%"},
      {"smiles": "O=C(Nc1cccnc1)C12CC3CC(CC(C3)C1)C2", "survival": "inactive: 98%"},
      {"smiles": "Cc1cccc(-c2nc3c4ccccc4nc(NCc4ccc(F)cc4)n3n2)c1", "survival": "inactive: 80%"},
      {"smiles": "COc1cccc(OC(=O)CSc2nnc(-c3ccc4c(c3)OCO4)o2)c1", "survival": "inactive: 78%"},
      {"smiles": "O=c1[nH]c2sc3c(c2c(=O)n1-c1ccccc1)CCCC3", "survival": "inactive: 110%"},
      {"smiles": "CC(C)CCN(C(=O)Nc1ccc(Cl)c(Cl)c1)C(C)c1cccs1", "note": "(centres undefined)", "survival": "inactive: 136%"},
      {"smiles": "CCOc1ccccc1NC(=O)C(C)N(c1ccccc1)S(C)(=O)=O", "note": "(centres undefined)", "survival": "inactive: 90%"},
      {"smiles": "COc1cc(/C=C/c2nc(C#N)c(N3CCC(C)CC3)o2)cc(OC)c1OC", "survival": "inactive: 74%"},
      {"smiles": "CCOC(=O)c1ccc(OC(=O)c2cn(-c3cccc(OC)c3)c(=O)c3ccccc23)cc1", "survival": "inactive: 58%"},
      {"smiles": "CCc1ccc2c(c1)NC(c1ccc(OC)cc1)=NC(c1ccncc1)=N2", "survival": "inactive: 83%"},
      {"smiles": "CSc1ncc(C(=O)N2CCN(c3cccc(C(F)(F)F)c3)CC2)c(C)n1", "survival": "inactive: 73%"},
      {"smiles": "COc1ccccc1OCC(=O)Nc1c(C(=O)c2ccc(F)cc2)oc2ccccc12", "survival": "inactive: 66%"},
      {"smiles": "Cc1ccc2c(c1)N(CCCC(=O)NCc1cccc(F)c1)C(=O)CO2", "survival": "inactive: 136%"},
      {"smiles": "C/C=C/C(=O)Nc1ccc(Cl)c(Cl)c1", "survival": "inactive: 108%"},
      {"smiles": "COc1ccc(NC(=O)C(NC(=O)/C=C\\c2ccc3c(c2)OCO3)c2ccccc2)cc1", "note": "(centres undefined)", "survival": "inactive: 77%"},
      {"smiles": "Cc1ccc(NC(=O)C2CCN(S(=O)(=O)c3cc(-c4noc(C)n4)ccc3C)CC2)c(C)c1", "survival": "inactive: 159%"},
      {"smiles": "Cc1cc(NC(=O)c2ccc(NC(=O)C(C)C)cc2)no1", "survival": "inactive: 128%"},
      {"smiles": "O=C(CSc1c2c(nc3cc(Cl)ccc13)CCCC2)NCc1ccccc1Cl", "survival": "inactive: 104%"},
      {"smiles": "COc1ccc(C2CC(=O)c3cc(-c4nc(-c5cccc([N+](=O)[O-])c5)cs4)c(=O)n(-c4ccc(OC)cc4)c3C2)cc1", "note": "(centres undefined)", "survival": "inactive: 72%"},
      {"smiles": "COc1ccc(C2N3CC4(C)CN2CC(c2ccccc2)(C3)C4=O)cc1OC", "note": "(centres undefined)", "survival": "inactive: 89%"}
    ]}
  ]
}
